Laboratory results: PubChem BioAssay AID504339 (National Center for Advancing Translational Sciences (NCATS), 2011)
Values joined by “and” are separate entries in the source; they are usually repeats but may differ in a detail not shown here. Equal entries are not always repeated. About 17,000 (4.4%) of roughly 390,000 compounds were called active. Inconclusive results, whose numbers are uncertain, are shown with a selection of clear calls. Calls come from the whole dose curve; as a rule, active = well fitted inhibition curve with a large enough effect; inconclusive = small, poorly fitted or top-dose-only effect; inactive = no such curve, though single readings can be large or run the other way. Potencies of inconclusive entries are doubtful fits and often do not repeat.

These compounds were tested against Lysine-specific demethylase 4A (Homo sapiens) (UniProt O75164) (assay: qHTS Assay for Inhibitors of JMJD2A-Tudor Domain). Details: AlphaScreen JMJD2A-Tudor / H3K4me3 peptide binding; activity change, negative = inhibition: at 114 µM (top of the series).
Sequence of UniProt O75164 (O75164 whole entry, looked up, the tested form may be a part): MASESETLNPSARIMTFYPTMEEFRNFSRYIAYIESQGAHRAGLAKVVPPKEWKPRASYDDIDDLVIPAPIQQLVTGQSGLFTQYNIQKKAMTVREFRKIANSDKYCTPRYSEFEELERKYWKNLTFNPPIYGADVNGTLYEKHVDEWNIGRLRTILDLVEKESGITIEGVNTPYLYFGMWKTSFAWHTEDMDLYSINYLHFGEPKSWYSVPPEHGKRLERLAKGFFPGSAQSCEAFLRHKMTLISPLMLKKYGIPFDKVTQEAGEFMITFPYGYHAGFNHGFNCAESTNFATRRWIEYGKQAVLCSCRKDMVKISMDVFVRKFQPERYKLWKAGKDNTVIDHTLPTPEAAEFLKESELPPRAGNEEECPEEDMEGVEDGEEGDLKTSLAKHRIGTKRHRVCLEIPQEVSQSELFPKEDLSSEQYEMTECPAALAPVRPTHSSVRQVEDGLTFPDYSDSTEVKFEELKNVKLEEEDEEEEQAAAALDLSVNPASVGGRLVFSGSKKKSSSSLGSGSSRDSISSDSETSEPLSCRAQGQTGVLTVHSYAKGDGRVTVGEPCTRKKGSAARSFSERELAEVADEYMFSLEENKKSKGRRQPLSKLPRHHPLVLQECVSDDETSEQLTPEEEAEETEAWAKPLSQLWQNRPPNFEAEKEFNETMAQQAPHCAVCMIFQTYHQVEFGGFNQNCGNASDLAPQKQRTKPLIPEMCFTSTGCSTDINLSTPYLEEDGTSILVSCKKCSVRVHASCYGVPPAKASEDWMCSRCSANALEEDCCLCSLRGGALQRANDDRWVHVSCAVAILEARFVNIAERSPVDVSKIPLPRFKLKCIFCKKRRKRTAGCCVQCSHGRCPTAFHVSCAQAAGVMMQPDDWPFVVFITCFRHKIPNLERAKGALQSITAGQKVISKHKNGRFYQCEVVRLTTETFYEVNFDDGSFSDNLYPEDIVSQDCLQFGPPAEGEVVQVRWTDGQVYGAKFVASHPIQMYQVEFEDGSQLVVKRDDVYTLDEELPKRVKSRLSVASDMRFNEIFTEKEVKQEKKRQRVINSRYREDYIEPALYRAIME
% is set by controls: 0 for no effect and ±100 for the full control effect; potency is the fitted concentration of half-maximal effect; tags give direction and shape of the fitted curve.
Note: nearly all actives have a fitted effect of over 50% in size.

SMILES | activity change, negative = inhibition | Potency
CC[C@@]1(C(=O)OC)N[C@H](CN(C)C(=O)Nc2ccc(F)cc2)[C@@H]2C(=O)N(Cc3ccccc3)C(=O)[C@@H]21 | inactive: -18% | 
O=C(Cn1nc2c(cc1=O)CCCC2)NCc1ccc(Cl)cc1 | inactive: -6.77% | 
C/C(=N\O)C(=O)NCc1ccncc1 | inactive: -6.85% [at 11.4 µM] | 
CC1(OC(=O)C2CCCC2)C(=O)C=C2C=C(c3ccsc3)OC=C2C1=O (centres undefined) |  | inconclusive: 39.8 µM [inhibitor, partial curve]
COc1ccc(-c2nn(-c3ccccc3)cc2C(=O)N(C)CC(=O)Nc2cccc(F)c2)cc1 |  | inconclusive: 79.4 µM [inhibitor, partial curve]
Cc1ccc(/C=N/n2c(-c3ccccn3)n[nH]c2=S)o1 |  | active: 5.62 µM
Cc1cccc(-c2nc(SCc3cc(=O)c4c(C)cc(C)cc4[nH]3)n[nH]2)c1 | inactive: -16.6% | 
Clc1ccc(C2=Nn3c(nnc3-c3n[nH]c4c3CCC4)SC2)cc1Cl |  | inconclusive: 89.1 µM [inhibitor, partial curve]
CCN1CCN(C(=S)c2ccc(-c3ccccc3)cc2)CC1 | inactive: -22.1% | 
CC1=NN(C(N)=S)C(=O)C1N=Nc1ccc(F)cc1 (centres undefined) | inactive: -14.1% | 
CN1CCN(c2ccc(NC(=O)c3cccc(OCc4ccccc4)c3)cc2)CC1 |  | inconclusive: 39.8 µM [inhibitor, partial curve]
COc1ccc(C)cc1NC(=O)CSc1nnc(-c2ccco2)n1Cc1ccco1 |  | inconclusive: 56.2 µM [inhibitor, partial curve]
Cc1cn(CC(=O)NCCc2c[nH]c3ccccc23)c(=O)[nH]c1=O |  | inconclusive: 50.1 µM [inhibitor, partial curve]
COc1ccc(S(=O)(=O)c2c(Nc3cccc(Cl)c3)sc(C(=O)c3ccccc3)c2N)cc1 | inactive: -24.2% | 
C=CCN(Cc1cccs1)C(=O)COc1ccc2c(c1)OCO2 | inactive: -27.4% | 
CCn1c(=O)n(CC)c2cc(N3CCCC3)c(NC(=O)c3ccc(C)cc3)cc21 |  | inconclusive: 44.7 µM [inhibitor, partial curve]
CCc1ccc(NC(=O)Cn2ncn3c(cc4ccccc43)c2=O)cc1 |  | inconclusive: 20 µM [inhibitor, full curve, poor fit]
Cc1cccc(NC(=O)CSc2nc(C3CC3)nc3ccccc23)c1 |  | inconclusive: 28.2 µM [inhibitor, full curve, poor fit]
CN(C)C(=O)C1C2NC(=S)N(c3ccc(Cl)cc3)C1(C)Oc1ccc(Cl)cc12 (centres undefined) |  | inconclusive: 79.4 µM [inhibitor, partial curve]
COc1ccc(C2(SCC(N)C(=O)O)c3ccccc3-c3ccccc32)cc1 (centres undefined) | inactive: -29.2% | 
CCOc1ccc(CCNC(=O)CSCC(=O)Nc2ccc(OC)cc2)cc1OCC | inactive: -7.09% | 
CCOC(=O)c1c(C)n(-c2ccc(C)cc2)c2ccc(OCC(O)CNCCCO)cc12 (centres undefined) |  | inconclusive: 56.2 µM [inhibitor, partial curve]
Cc1c(Cl)cccc1NS(=O)(=O)c1cc2c(cc1F)NC(=O)CC2 | inactive: -19.9% | 

SMILES | activity change, negative = inhibition | Potency
Cc1ccc(C(=O)/C=C/c2ccco2)c(O)c1 |  | inconclusive: 44.7 µM [inhibitor, single point]
Cc1nn(C)c(Sc2ccccc2N)c1[N+](=O)[O-] |  | active: 17.8 µM
CNC(=O)c1ccc(-c2sc3nc(N4CCOCC4)c4c(c3c2N)CCCC4)o1 |  | inconclusive: 100 µM [inhibitor, single point]
COc1cccc2c1C(=O)c1c(O)c3c(c(O)c1C2=O)CC(O)(C(C)=O)CC3OC1CC(O)C(O)C(C)O1 (centres undefined) |  | inconclusive: 35.5 µM [inhibitor, partial curve]
O=C(Nc1ccc(Cl)cc1)Nc1ccc(Br)cn1 |  | inconclusive: 31.6 µM [inhibitor, partial curve]
COCCN1C(=O)C(=O)/C(=C(/O)c2cccc(OC)c2)C1c1ccco1 (centres undefined) |  | inconclusive: 89.1 µM [inhibitor, single point]
Cc1ccc(C(=O)CSc2nc(C)cc(C)c2C(=O)Nc2cccc(C)c2)cc1 | inactive: -18.9% | 
Cc1c(C)n(Cc2ccc(Cl)cc2)c2ccc(C(=O)N3CCN(c4ccccc4F)CC3)cc12 |  | inconclusive: 35.5 µM [inhibitor, partial curve]
CC(C)Cn1nc(C(=O)Nc2cccc(S(=O)(=O)N3CCCC3)c2)c2ccccc2c1=O |  | inconclusive: 63.1 µM [inhibitor, partial curve]
COc1ccc(OC)c(CCNC(=O)c2nc(-c3ccc(Cl)cc3)n3c2CCCCC3)c1 |  | active: 28.2 µM
Cc1cc(C(=O)CSc2nc(N)cc(N)n2)c(C)n1-c1cccc(F)c1 |  | active: 28.2 µM
CCN1C(=NCc2ccc(OC)cc2)N[C@@H](c2ccccc2)C(C(=O)OC)=C1C |  | inconclusive: 31.6 µM [inhibitor, single point]
CCCC[C@H]1CCCO[C@@](C(=O)NCc2ccc(C)o2)(C(F)(F)F)C1 | inactive: -15.9% | 
O=C(C1CC1)N(CCN(Cc1ccccc1)C(=O)C1CC1)Cc1ccccc1 | inactive: 1.53% [at 11.4 µM] | 
COc1ccsc1C(=O)Nc1ccc(F)cc1F |  | inconclusive: 79.4 µM [inhibitor, partial curve]
C=CC(=O)Nc1cccc(Nc2nc(N[C@H]3CC[C@H](N(C)C)CC3)nc3c2ncn3C(C)C)c1 |  | inconclusive: 25.1 µM [inhibitor, partial curve, poor fit]
Cc1ccc(NC(=O)c2ccco2)c(NC(=O)c2ccccc2C)c1 |  | active: 50.1 µM
COc1cc(C2C(C#N)=C(N)OC3=C2C(=O)CC(C)(C)C3)cc2c1OCO2 (centres undefined) |  | inconclusive: 63.1 µM [inhibitor, partial curve]
COc1ccc(C2Nc3ccccc3C(=O)N2Cc2ccc(-c3ccccc3)cc2)cc1COc1ccc(NC(C)=O)cc1 (centres undefined) |  | inconclusive: 79.4 µM [inhibitor, partial curve]
Cc1sc2ncnc(N(C)CCc3ccccn3)c2c1C |  | active: 1.41 µM
Cc1ccc(OCC(=O)Nc2ccc(OCc3cc(=O)n4c(C)csc4n3)cc2)cc1C | inactive: -23.8% | 
O=C(Nc1nc(-c2ccccn2)cs1)C1CC1 |  | active: 56.2 µM
Cc1ccc(-n2ncc3c(NCCCn4ccnc4)ncnc32)cc1C |  | inconclusive: 50.1 µM [inhibitor, partial curve]

SMILES | activity change, negative = inhibition | Potency
Cc1cc(N(CCO)CCO)ccc1N=Nc1cc(F)ccc1F |  | active: 22.4 µM
O=C(c1cccc(F)c1)N1CCN(Cc2ccco2)CC1 |  | active: 7.94 µM
Clc1ccc(C2=CSC3=Nc4cccc5cccc(c45)N23)cc1 |  | inconclusive: 22.4 µM [inhibitor, full curve]
CCOc1ccc(NC(=O)Cn2nc(Cc3cccnc3)c3ccccc3c2=O)cc1 | inactive: -15.2% | 
Cc1nn(CCc2nc(-c3ccco3)cs2)c2[nH]c(=O)cc(C(F)(F)F)c12 |  | active: 79.4 µM
C[C@H](CO)N1C[C@H](C)[C@@H](CN(C)Cc2ccccc2)Oc2c(NC(=O)Cc3ccccc3)cccc2C1=O |  | inconclusive: 63.1 µM [inhibitor, partial curve, poor fit]
CC(=O)OC1C(N2CCCCC2)c2c(ccc(/C=C/C(=O)N3CCCCC3)c2O)OC1(C)C (centres undefined) | inactive: -6.19% | 
COc1ccc(S(=O)(=O)N(CC(=O)NC(C)c2ccccc2)c2ccc(C)cc2)cc1OC (centres undefined) | inactive: -17% | 
CCOC(=O)C1CCN(CC(C)(C)NS(=O)(=O)c2ccc(Cl)cc2)CC1 |  | active: 3.16 µM
Cc1ccccc1NC(=O)Cn1nnc(S(=O)(=O)c2ccc(C(C)(C)C)cc2)c1N |  | inconclusive: 56.2 µM [inhibitor, partial curve]
COc1ccc(N2CCN(CCCNC(=O)c3c(C)nn(-c4ccc(F)cc4)c3-n3cccc3)CC2)cc1 |  | inconclusive: 44.7 µM [inhibitor, partial curve]
O=C(c1ccccc1)c1ccc(C(=O)N2CCN(c3ccc(O)cc3)CC2)cc1 |  | inconclusive: 14.1 µM [inhibitor, partial curve]
CCN(CC)C(=O)C1=C(C)NC(=O)NC1c1c(F)cccc1Cl (centres undefined) |  | inconclusive: 89.1 µM [inhibitor, single point]
O=C(On1c(-c2ccccc2)nc2ccccc2c1=O)c1ccco1 |  | active: 89.1 µM
Cc1ccc(Cl)cc1NC1=C/C(=N\S(=O)(=O)c2cccs2)c2ccccc2C1=O |  | active: 5.01 µM and active: 2.82 µM
CCN(c1ccccc1)S(=O)(=O)c1ccc(Cl)c(NC(=O)CSc2nncs2)c1 |  | active: 79.4 µM
COc1ccc(OC)c(CN2CCN(C(=O)c3cccc(S(=O)(=O)Nc4ccc(C)cc4)c3)CC2)c1 |  | inconclusive: 44.7 µM [inhibitor, full curve]
Cc1cccc(Nc2nc(-c3ccccn3)cs2)n1 |  | inconclusive: 63.1 µM [inhibitor, partial curve, poor fit]
COc1cc(C(=O)Nc2cc3c(cc2N2CCCCC2)n(C)c(=O)n3C)cc(OC)c1OC |  | inconclusive: 35.5 µM [inhibitor, full curve]
CCSc1ccccc1C(=O)N1CCN(c2ccc([N+](=O)[O-])cc2)CC1 |  | inconclusive: 89.1 µM [inhibitor, partial curve]
N#C/C(=C\c1ccc(Cl)cc1)c1n[nH]c(Cn2cncn2)n1 |  | inconclusive: 79.4 µM [inhibitor, partial curve]
Cc1cccc(NC(=O)CSc2cc(C(=O)c3nccn3C)c3ccccc3n2)c1 |  | inconclusive: 70.8 µM [inhibitor, single point]
CN1/C(=C/c2cccc[n+]2CCO)Sc2ccccc21 |  | inconclusive: 39.8 µM [inhibitor, single point]
